{"source": "patent US20250340662A1", "about": "(AKIRAM THERAPEUTICS, published 2025)", "binders": {"B1": {"name": "AL-MN114-465 IgG1 LALA (antibody)", "VH": "EVQLLESGGGLVQPGGSLRLSCAASGFSFGSYAMSWVRQAPGKGLEWVSAISAGGSSTFYADSVKGRFTISRDNSKNTLYLQMNSLRAEDTAVYYCARHYYSDSDYRSSAAMDYWGQGTLVTVSS[in this place human IgG1 constant region with changes]", "VL": "DIQMTQSPSSLSASVGDRVTITCRASQSISSYLNWYQQKPGKAPKLLIYTASSLQSGVPSRFSGSGSGTDFTLTISSLQPEDFATYYCQQDLYLLTFGQGTKLEIKRTVAAPSVFIFPPSDEQLKSGTASVVCLLNNFYPREAKVQWKVDNALQSGNSQESVTEQDSKDSTYSLSSTLTLSKADYEKHKVYACEVTHQGLSSPVTKSFNRGEC", "notes": "item 20 i) gives heavy 75 / light 94 without naming the format"}}, "key": {"Human CD44v6 iso4-Fc [1]": {"biological_target": "T1, Human CD44v6 iso4-Fc (human, UniProt P16070-4 21-606, limits assumed, chemically biotinylated in the form called Bio-CD44v6)", "T1 construct": "Custom ordered from ProMab, produced in HKB11 cells; The biotinylated and the plain form are kept as one molecule; also called Bio-CD44v6; bio-CD44v6", "assay": "SPR SCK, antibody immobilised, CD44v6-Fc injected", "method": "(§1) The SPR measurements were performed on a BIAcore T200 instrument (Cytiva) using a SCK approach. Each antibody was directly immobilized onto a separate surface of a CM5 series S sensor chip using EDC/NHS amine coupling chemistry according to manufacturer's recommendations. Immobilization levels were set to 1500 RU. All experiments were performed at 25° C. in running buffer (HBS, 0.05% Tween20, pH 7.5). A three-fold dilution series of CD44v6 and negative control CD44, comprised of five concentrations ranging between 10-0.12 nM, were prepared in running buffer. A four-fold dilution series of human, cynomolgus and rabbit v6-peptide, respectively, comprised of five concentrations ranging between 100-0.39 nM, were also prepared in running buffer. Each dilution series were sequentially injected, starting with the lowest concentration first, over an immobilized antibody clone and chip surfaces were regenerated with 10 mM glycin-HCl, pH 2.1. See table 10 for specifications of antigens used in SPR measurements. By subtracting the response curve of a reference surface (an activated and deactivated chip surface) and to a blank run (running buffer injected instead of antigen) response curve sensorgrams were obtained. Data was analyzed using the Biacore T200 Evaluation 3.1 software and a 1:1 Langmuir binding model."}, "Human CD44 iso6-Fc": {"biological_target": "T2, Human CD44 iso6-Fc (human, UniProt P16070-6 21-606, limits assumed, chemically biotinylated in the form called Bio-CD44)", "T2 construct": "Negative control antigen, ProMab, HKB11 cells; also called Bio-CD44; bio-CD44", "assay": "SPR SCK, antibody immobilised, CD44-Fc injected", "method": "as §1"}, "Cynomolgus v6-peptide": {"biological_target": "T3, Cynomolgus v6-peptide (cynomolgus, UniProt A0A2K5VJE0 387-429, N-terminal biotin)", "T3 construct": "domain: v6-region (43 amino acids); also called Cm v6-peptide; cm v6-peptide", "T3 peptide": "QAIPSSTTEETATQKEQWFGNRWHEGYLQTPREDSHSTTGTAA", "assay": "SPR SCK, antibody immobilised, peptide injected", "method": "as §1"}, "Human v6-peptide": {"biological_target": "T4, Human v6-peptide (human, N-terminal biotin)", "T4 construct": "Bachem #4108947, 43 amino acids, synthetic; also called Hm v6-peptide; hm v6-peptide", "T4 peptide": "T3 peptide with I3T, L28R", "assay": "SPR SCK, antibody immobilised, peptide injected", "method": "as §1"}, "Human CD44v6 iso4-Fc [2]": {"biological_target": "T1, Human CD44v6 iso4-Fc", "T1 sequence (P16070 other isoform, or with tags, fused parts or gaps limits assumed)": "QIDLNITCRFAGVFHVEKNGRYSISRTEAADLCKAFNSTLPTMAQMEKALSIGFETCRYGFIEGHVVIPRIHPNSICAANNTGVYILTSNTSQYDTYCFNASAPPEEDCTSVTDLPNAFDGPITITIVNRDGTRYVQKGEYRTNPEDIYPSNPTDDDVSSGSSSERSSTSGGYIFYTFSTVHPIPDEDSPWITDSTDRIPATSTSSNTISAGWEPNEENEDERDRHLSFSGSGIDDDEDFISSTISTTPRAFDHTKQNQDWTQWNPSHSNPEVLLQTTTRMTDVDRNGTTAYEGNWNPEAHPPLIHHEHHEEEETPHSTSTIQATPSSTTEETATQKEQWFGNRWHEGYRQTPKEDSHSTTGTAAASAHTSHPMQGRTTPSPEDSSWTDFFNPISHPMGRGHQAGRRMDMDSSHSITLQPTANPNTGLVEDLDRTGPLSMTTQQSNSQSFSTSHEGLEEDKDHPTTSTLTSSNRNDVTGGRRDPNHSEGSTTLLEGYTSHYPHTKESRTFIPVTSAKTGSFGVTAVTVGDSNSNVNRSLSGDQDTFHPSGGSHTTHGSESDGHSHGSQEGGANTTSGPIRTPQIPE", "assay": "SPR SCK, antibody immobilised, CD44v6-Fc injected; apparent KD", "method": "as §1"}}, "note": "Numbering of substitutions follows the chain as printed.", "data": [{"binder": "B1", "values": [{"measurement": "koff", "setting": "Human CD44v6 iso4-Fc [1]", "result": 0.0001, "unit": "s⁻¹"}, {"measurement": "kon", "setting": "Human CD44v6 iso4-Fc [1]", "result": "1.3e+06", "unit": "M⁻¹ s⁻¹"}, {"measurement": "binding result", "setting": "Human CD44 iso6-Fc", "result": "no binding (tested: 10 nM highest CD44 concentration)"}, {"measurement": "Kd", "setting": "Cynomolgus v6-peptide", "result": 6.2, "unit": "nM"}, {"measurement": "koff", "setting": "Cynomolgus v6-peptide", "result": 0.0062, "unit": "s⁻¹"}, {"measurement": "kon", "setting": "Cynomolgus v6-peptide", "result": 990000, "unit": "M⁻¹ s⁻¹"}, {"measurement": "Kd", "setting": "Human v6-peptide", "result": 8.6, "unit": "nM"}, {"measurement": "koff", "setting": "Human v6-peptide", "result": 0.008, "unit": "s⁻¹"}, {"measurement": "kon", "setting": "Human v6-peptide", "result": 930000, "unit": "M⁻¹ s⁻¹"}, {"measurement": "Kd", "setting": "Human CD44v6 iso4-Fc [2]", "result": 0.077, "unit": "nM"}]}]}
